The results in this text go back to patent publication US20250333515A1 (VOR BIOPHARMA, published 2025).

The target of assay [1] is T1, CLL-1 on the surface of CLL-1-positive AML cell lines (HL-60 WT, U937) (human, UniProt Q5QGZ9 1-265).
T1 construct: whole, on cells; also called HL-60 WT cells; U937 cells
T1 sequence (looked up): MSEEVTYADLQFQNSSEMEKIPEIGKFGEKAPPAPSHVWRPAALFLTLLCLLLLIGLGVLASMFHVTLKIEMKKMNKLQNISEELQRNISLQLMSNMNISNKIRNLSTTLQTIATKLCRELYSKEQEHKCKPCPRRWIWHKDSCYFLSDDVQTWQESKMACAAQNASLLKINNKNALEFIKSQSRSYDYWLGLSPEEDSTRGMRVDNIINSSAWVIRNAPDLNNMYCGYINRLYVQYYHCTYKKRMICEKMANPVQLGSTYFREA
The assay is described as follows: multi-point flow cytometry on HL-60 WT cells, FLAG-tagged binder, anti-FLAG AlexaFluor 488. Here is the method:
Target cell staining was assessed relative to control samples comprising cells stained with secondary antibodies only (see FIG. 6). Multi-point FACS via flow cytometry was performed to assess dose-depending binding of CLL-1 antibody binders to the cell surface of HL-60 WT cells. Un-fixed, un-permeabilized cells were incubated with various concentrations of purified FLAG-tagged anti-CLL-1 antibody clones and cell-surface binding was detected by subsequent incubation in the presence of rabbit anti-FLAG tag antibody AlexaFluor 488-conjugate antibody (R&D Systems).
(In general: A flow cytometer gives signals particle by particle.)

Assay [2] concerns the target T2, biotinylated recombinant CLL-1 protein (UniProt Q5QGZ9 65-265, limits assumed, biotinylated (site not stated)).
T2 construct: also called CLEC12A
T2 sequence (looked up): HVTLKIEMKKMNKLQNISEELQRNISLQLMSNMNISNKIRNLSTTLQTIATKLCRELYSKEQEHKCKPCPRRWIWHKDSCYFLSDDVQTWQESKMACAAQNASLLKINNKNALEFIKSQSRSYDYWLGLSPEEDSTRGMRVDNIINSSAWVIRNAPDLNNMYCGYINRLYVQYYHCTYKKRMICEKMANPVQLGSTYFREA
The assay can be described thus: ELISA; biotinylated CLL-1 on neutravidin plate, FLAG-tagged binder, anti-FLAG HRP. As to the method: Dose-depending binding activities were analyzed by ELISA. COSTAR® microtiter plates were coated with 1 μg/mL neutravidin protein. Following washing, neutravidin-coated wells were seeded with 100 nM of biotinylated recombinant CLL-1 protein. Following washing, purified FLAG-tagged CLL-1 antibody binders were added to the wells and subsequently detected by mouse anti-FLAG tag HRP conjugate (Sigma).
(An ELISA detects its analyte on a solid surface through an enzyme-linked reagent.)

Assay [3] concerns the target T1, CLL-1 on the surface of CLL-1-positive …. The assay can be described thus: flow cytometry, HL-60 WT, 200 nM; secondary only 5600. As to the method:
HL60 WT, U937, or HL-60 CLL-1 knockout (KO) control cells were counted, washed in PBS and mixed with 1 ml of Fixable Viability dye eFluor 780 (diluted at 1:1000 in PBS) then incubated at room temperature for 10 minutes to distinguish Live/Dead cells. Subsequently the cells were washed once with FACS Buffer (PBS with 2% FBS) and incubated with human TruStain FcX™ (Fc block diluted at 1:10 in FACS buffer) at room temperature for 5 minutes. Fc blocked cells were stained with 50 μL of the primary CLL-1 antibody (at 200 nM concentrations) and incubated at 4° C. for 30 minutes in the dark. Cells were subsequently stained with 100 μL of secondary antibody (AF488 Rabbit anti-FLAG-tag diluted at 1:1000) incubated at 4° C. for 30 minutes in the dark. Cells were washed and flow cytometric analysis was performed using flow cytometry and data analysis was performed using FlowJo.

B1: Anti-CLL-1 Binder Clone 39 (scFv)
scFv: [no letters for about 100 residues]GGGGSGGGGSGGGGSQVQLVQSGAEVKKPGASVKVSCKASGYTFTGYYMHWVRQAPGQGLEWMGWMNPSSGNTGYAHEFQGRVTMTRNTSTGTAYMELSGLRSEDTAVYYCARGDTGDSFDYWGQGTLVTVSS
notes: scFv (VL-linker-VH); not shown: FLAG tag
For the molecule B1, the EC50 worked out at 0.7 nM in assay [1] and 1.9 nM in assay [2]. The “Geometric Mean : B530-H” value in assay [3] was 20500.

B2: Anti-CLL-1 Binder Clone 5 (scFv)
scFv: [no letters for about 100 residues]GGGGSGGGGSGGGGSQVQLVESGGGVVQPGRSLRLSCAASGFTFSSYGMHWVRQAPGKGLEWVAFISHDGSNKYYADSVKGRSTISRDNSKSTLFLQMNSLRDEDTAVYFCAREGQLTTSWDFFDYWGHGTLVTVSS
notes: as for B1
For the molecule B2, the EC50 is 0.4 nM in assay [1] and 1.2 nM in assay [2]. For the same molecule, the “Geometric Mean : B530-H” value in assay [3] is 15600.

One may read the EC50 as the concentration that produces a half-maximal response.
